PubChem BioAssay AID686979 (National Center for Advancing Translational Sciences (NCATS), 2013)
Values joined by “and” are separate entries in the source; they are usually repeats but may differ in a detail not shown here. Identical values can stand only once. Hit rate of the full screen: of about 420,000 compounds, about 50,000 (12%) were called active. Inconclusive means that the source gave no clear call. Such entries were picked first, then a sample of the others. Calls come from the whole dose curve; as a rule, active = well fitted inhibition curve with a large enough effect; inconclusive = small, poorly fitted or top-dose-only effect; inactive = flat fitted curve, though single readings scatter. Potencies of inconclusive entries are doubtful fits and often do not repeat.

experiment: qHTS for Inhibitors of human tyrosyl-DNA phosphodiesterase 1 (TDP1): qHTS in cells in presence of CPT; details: chicken DT40 Tdp1-/-;hTDP1 cells + 20 nM CPT, ATP luminescence, 48 h; series mostly up to 46.2 µM; note: nearly all actives have a fitted effect of over 55% in size
Summary of the method: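 Chicken DT40 Tdp1-/- cells stably complemented with human TDP1 were seeded at 400 cells/well in medium containing 20 nM camptothecin, exposed to pin-transferred compounds, and grown at 37 °C for at least 48 hr. Viability was read as ATP luminescence.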
Potency is the fitted concentration of half-maximal effect; tags give direction and shape of the fitted curve.

| SMILES | Potency |
| --- | --- |
| COCCCNC(=O)c1cccc2c(-c3cccc(C(N)=O)c3)coc12 | inconclusive: 29.1 µM [inhibitor, single point] |
| Cc1ccnn1CCC(=O)N1CCCC(N2CCN(c3cccc(Cl)c3)CC2)C1 (stereo not drawn) | inconclusive: 20.6 µM [inhibitor, single point] |
| Cc1nnc(Nc2ccccn2)c2ccccc12 | inactive |
| O=C(CCCCCn1c(=O)[nH]c2ccccc2c1=O)NCc1ccc(Cl)cc1 | inconclusive: 11.6 µM [inhibitor, partial curve] |
| Cc1nc(-c2cccc(NC(=O)c3ccc(-n4nccc4C)cc3)c2)cs1 | inconclusive: 29.1 µM [inhibitor, single point] |
| CCC(=O)N1CCc2cc(Br)cc(S(=O)(=O)NCc3ccccc3)c21 | inactive |
| c1ccc(CNc2ncnc3ccc(-c4ccc5c(c4)OCO5)cc23)cc1 | inconclusive: 8.2 µM [inhibitor, partial curve, poor fit] |
| COc1ccc(S(=O)(=O)N2CCN(CC(=O)Nc3ccccc3Cl)CC2)cc1 | inconclusive: 29.1 µM [inhibitor, single point] |
| O=c1c(O)c(-c2ccccc2)oc2cc(O)cc(O)c12 | inconclusive: 18.8 µM [inhibitor, partial curve, poor fit] and inconclusive: 14.6 µM [inhibitor, partial curve] |
| O=C(O)c1cc(=O)c2c(OCC(O)COc3cccc4oc(C(=O)O)cc(=O)c34)cccc2o1 | inconclusive: 0.82 µM [inhibitor, full curve, poor fit] |
| COc1cc(C(=O)Nc2ccc(OCC(=O)N3CCOCC3)cc2C)cc(OC)c1OC | inactive |
| O=C(COc1ccccc1)N[C@@H]1c2ccccc2CC[C@H]1OCc1ccccc1 | inconclusive: 29.1 µM [inhibitor, single point] |
| NC(=O)c1cc2ccccc2o/c1=N\NC(=O)c1ccccc1O | inconclusive: 2.06 µM [inhibitor, full curve] |
| Cc1ccc(CN2CCC2(C)C(=O)NC2CCc3ccccc32)cc1 (stereo not drawn) | inconclusive: 29.1 µM [inhibitor, single point] |
| CCOC(=O)c1ccc(N=Cc2nc(-c3ccccc3)oc2OC(C)=O)cc1 | active: 9.2 µM |
| CCCc1nc(NCc2ccc3c(c2)OCO3)c2nnn(Cc3ccccc3Cl)c2n1 | inconclusive: 29.1 µM [inhibitor, single point] |
| O=C(NCC1CCCCC1)NCC1CCCCC1 | inconclusive: 29.1 µM [inhibitor, single point] |
| COc1cccc(CN(C)C(=O)c2ccc(S(=O)(=O)Nc3cccc(C)c3C)cc2)c1OC | active: 18.4 µM |
